From paper PMC4336329 (PLoS ONE, 2015) come the findings set out here.

About 14,000 (4.5%) of roughly 310,000 compounds showed an effect of 50% or more. The effect is printed as a negative number. This is one part of the list.
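Further: peak tail current of the secondary pulse compared with the same well before compound.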

The target of the experiment is human ether-à-go-go-related gene (hERG) potassium channel (human, UniProt Q12809). In words: primary screen, population patch clamp on CHO cells stably expressing hERG.
Sequence of human ether-à-go-go-related gene (hERG) potassium channel (Q12809 whole entry, looked up): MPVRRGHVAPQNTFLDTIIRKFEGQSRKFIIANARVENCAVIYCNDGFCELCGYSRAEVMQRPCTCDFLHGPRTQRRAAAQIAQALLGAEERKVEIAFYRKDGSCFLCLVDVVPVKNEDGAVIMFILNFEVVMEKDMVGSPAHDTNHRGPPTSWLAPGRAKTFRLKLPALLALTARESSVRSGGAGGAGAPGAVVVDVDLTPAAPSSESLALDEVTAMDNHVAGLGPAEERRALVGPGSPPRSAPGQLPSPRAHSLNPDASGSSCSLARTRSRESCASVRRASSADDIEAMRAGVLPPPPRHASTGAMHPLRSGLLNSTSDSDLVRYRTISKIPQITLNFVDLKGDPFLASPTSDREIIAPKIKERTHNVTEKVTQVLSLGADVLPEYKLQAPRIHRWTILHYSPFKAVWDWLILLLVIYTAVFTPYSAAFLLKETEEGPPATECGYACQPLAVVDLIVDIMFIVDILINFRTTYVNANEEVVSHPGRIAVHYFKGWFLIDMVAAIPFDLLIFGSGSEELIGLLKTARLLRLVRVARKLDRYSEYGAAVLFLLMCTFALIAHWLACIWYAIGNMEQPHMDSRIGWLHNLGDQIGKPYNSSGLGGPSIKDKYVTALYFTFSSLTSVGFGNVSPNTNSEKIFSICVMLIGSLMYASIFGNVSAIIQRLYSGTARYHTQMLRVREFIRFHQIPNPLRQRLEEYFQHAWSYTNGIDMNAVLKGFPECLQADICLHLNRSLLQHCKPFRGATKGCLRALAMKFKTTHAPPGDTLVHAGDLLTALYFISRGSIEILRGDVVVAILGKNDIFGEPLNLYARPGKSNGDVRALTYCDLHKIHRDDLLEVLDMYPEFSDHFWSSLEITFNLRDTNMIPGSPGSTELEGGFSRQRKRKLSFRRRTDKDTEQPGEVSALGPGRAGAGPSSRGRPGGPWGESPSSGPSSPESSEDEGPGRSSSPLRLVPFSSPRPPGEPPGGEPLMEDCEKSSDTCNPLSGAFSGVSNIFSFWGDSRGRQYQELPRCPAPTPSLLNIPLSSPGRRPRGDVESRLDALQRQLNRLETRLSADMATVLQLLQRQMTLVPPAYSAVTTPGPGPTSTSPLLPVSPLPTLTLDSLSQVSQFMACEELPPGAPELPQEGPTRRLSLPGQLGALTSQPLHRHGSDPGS
On to `CCNc1nc(NCC)nc(N/N=C/c2ccc(Br)cc2)n1`, for which the “hERG current change (%, negative = inhibition) at 10uM” value is recorded as -74.6%.
Take `Cc1ccc(-c2nnc(NC(=O)Cc3ccc(F)cc3)o2)c(C)c1`: the “hERG current change (%, negative = inhibition) at 10uM” value is listed as 12%.
As to `CCn1nc(C)c(CN2CCc3c([nH]c4ccccc34)C2C(C)(C)C)c1C` (stereo not shown), the “hERG current change (%, negative = inhibition) at 10uM” value is -3.17%.
In the case of `Cc1nc2ccccc2cc1C(=O)N/N=C/c1ccc([N+](=O)[O-])cc1`, the “hERG current change (%, negative = inhibition) at 10uM” value is listed as -12.2%.
Take `N#Cc1c(-c2ccccc2)c(-c2ccccc2)n[nH]c1=O`: the “hERG current change (%, negative = inhibition) at 10uM” value was 19.7%.
Consider `COc1ccccc1CC(=O)NCC1CCCO1` (stereo not shown), for which the “hERG current change (%, negative = inhibition) at 10uM” value was 3.69%.
As for `Cc1ccccc1Nc1nc(N)nc(CSc2nnc(C)n2C)n1`, the “hERG current change (%, negative = inhibition) at 10uM” value is 20.6%.
For the molecule `CCCCN(CC)CCNC(=O)CCC(=O)Nc1ccc2nc(N3CCN(C)CC3)cc(C)c2c1`, the “hERG current change (%, negative = inhibition) at 10uM” value was found to be 12.3%.
For the molecule `CCC(C)N(C)Cc1cccc(C2(O)CCN(S(=O)(=O)c3ccc(F)cc3)CC2)c1` (stereo not shown), the “hERG current change (%, negative = inhibition) at 10uM” value is reported as -69.3%.
To `C/C(=N\NC(=O)Cn1c(C)nc2ccccc21)c1cccs1` belongs -12.8%; to `CC(C)C(=O)N1CCC(c2nc(-c3ccc(S(=O)(=O)N4CCCC4)cc3)no2)CC1`, -5.76%; to `O=C(Nc1nnc(-c2ccc(Cl)cc2)o1)c1cccc(N2C(=O)CCC2=O)c1`, 12.2%.
As to `COc1ccc(C(=O)NCC(c2cccnc2)N2CCN(c3ccccc3)CC2)cc1OC` (stereo not shown), the “hERG current change (%, negative = inhibition) at 10uM” value is given as -9.6%.
With `Cc1cccc(C(=O)N[C@H](C(=O)Nc2nc(C)cs2)C(C)C)c1`, the “hERG current change (%, negative = inhibition) at 10uM” value is -5.19%.
Take `Cc1cc(C)c(C2C(C#N)=C(N)Oc3n[nH]c(C)c32)cc1CN1CCCC1` (stereo not shown): the “hERG current change (%, negative = inhibition) at 10uM” value is listed as -14.1%.
As to `Cc1cccnc1NC(=O)Nc1ccc(Cl)cc1`, the “hERG current change (%, negative = inhibition) at 10uM” value was determined as 9.39%.
On to `COc1ccc(C2c3ccsc3CCN2C(=O)C(C)(C)C)cc1` (stereo not shown), for which the “hERG current change (%, negative = inhibition) at 10uM” value is given as -15.4%.
With `COc1cc(C(=O)NCC(=O)N/N=C/c2cccnc2)cc(OC)c1OC`, the “hERG current change (%, negative = inhibition) at 10uM” value is on record as 10.4%.
In the case of `Cc1ccc(CN2CC(C(=O)NNC(=O)c3ccc(F)cc3)CC2=O)cc1` (stereo not shown), the “hERG current change (%, negative = inhibition) at 10uM” value stood at 8.82%.
Consider `CN(C)/C=C/C(=O)c1ccc2noc(-c3ccccc3)c2c1`, for which the “hERG current change (%, negative = inhibition) at 10uM” value is on record as -62.6%.
Consider `Cc1cc(=O)oc2cc(OC(C)C(=O)NCC3CCC(C(=O)O)CC3)ccc12` (stereo not shown), for which the “hERG current change (%, negative = inhibition) at 10uM” value is on record as -7.56%.
For the molecule `COC(=O)c1ccc(NC(=O)CSc2nnc(COc3ccccc3)n2C)cc1`, the “hERG current change (%, negative = inhibition) at 10uM” value came to 19%.
Take `C=CC[C@@H]1C=C[C@H](O/N=C/c2ccc(C(=O)N3[C@H](c4ccc(C)cc4)[C@@H](C)CC[C@H]3C(=O)OC)cc2)[C@@H](CO)O1`: the “hERG current change (%, negative = inhibition) at 10uM” value was -0.313%.
Consider `COC(=O)C1=C(C)N(C)C(C)=C(C(=O)OC)C1c1ccc(C(=O)OC)cc1`, for which the “hERG current change (%, negative = inhibition) at 10uM” value was found to be 8.97%.
The same measure for `COc1ccccc1NS(=O)(=O)c1cccc(C(=O)N2CCCCCCC2)c1`: -19.7%; for `O=C(c1ccc(Br)o1)N1CCN(C/C=C/c2ccccc2)CC1`: -61.8%; for `CN(C(=O)COC(=O)C1c2ccccc2Oc2ccccc21)C1CCS(=O)(=O)C1` (stereo not shown): 4.56%.
As for `O=C(NCc1ccccc1Cl)NCc1ccccc1Cl`, the “hERG current change (%, negative = inhibition) at 10uM” value is listed as -9.85%.
Consider `Cc1oc2ccc(OCc3ccc(F)cc3)cc2c1C(=O)O`, for which the “hERG current change (%, negative = inhibition) at 10uM” value was 8.17%.
Consider `COc1cccc(C(=O)N/N=C/C(Br)=C/c2ccccc2)c1`, for which the “hERG current change (%, negative = inhibition) at 10uM” value is on record as -42.3%.
For `CCCCc1nnc(NC(=O)C(C)Sc2nc(N)cc(=O)[nH]2)s1` (stereo not shown), the “hERG current change (%, negative = inhibition) at 10uM” value is given as -7.65%.
Take `O=C(CCN1CCCCC1)N/N=C/c1c[nH]c2ccccc12`: the “hERG current change (%, negative = inhibition) at 10uM” value is reported as 5.39%.
Consider `CC(C)Cc1nnc(NC(=O)CSc2nc(O)c(Cc3ccccc3)c(=O)[nH]2)s1`, for which the “hERG current change (%, negative = inhibition) at 10uM” value came to 24%.
On to `N#CC1(NC(=O)CSc2n[nH]c(-c3ccccc3)n2)CCCCC1`, for which the “hERG current change (%, negative = inhibition) at 10uM” value is listed as 3.19%.
With `Cc1ccc(C)c(S(=O)(=O)N2CCCCC2CCNC(=O)C(=O)NCc2ccncc2)c1` (stereo not shown), the “hERG current change (%, negative = inhibition) at 10uM” value is listed as -45.7%.
The same measure for `COc1ccc(NC(=O)CCCN2C(=O)CN(C)C2=O)c(OC)c1`: -4.4%; for `CCOCCn1c(CN2CCN(c3ccc(F)cc3)CC2)nc2c1c(=O)n(C)c(=O)n2C`: -56.2%.
As to `CCOC(=O)c1ccc(N2C(=O)CC(Sc3ncccn3)C2=O)cc1` (stereo not shown), the “hERG current change (%, negative = inhibition) at 10uM” value is 2.47%.
For `CC(C)(C)c1cc(C(=O)CCN2CCOCC2)cc(C(C)(C)C)c1O`, the “hERG current change (%, negative = inhibition) at 10uM” value is -42.7%.
For `CC(=O)c1ccc(N2CCN(S(=O)(=O)c3ccc4c5c3CC(=O)N5CC(C)S4)CC2)cc1` (stereo not shown), the “hERG current change (%, negative = inhibition) at 10uM” value is given as 12.5%.
For `Cc1nc(C)c(-c2ccc(SCc3ccc([N+](=O)[O-])cc3)nn2)s1`, the “hERG current change (%, negative = inhibition) at 10uM” value is -27.6%.
As for `CCc1ccc(N2CC(C(=O)OCC(=O)Nc3ccc(C(C)=O)cc3)CC2=O)cc1` (stereo not shown), the “hERG current change (%, negative = inhibition) at 10uM” value was -19.1%.
Consider `CCOc1ccc2[nH]cc(C(=O)NCCc3ccccc3)c(=O)c2c1`, for which the “hERG current change (%, negative = inhibition) at 10uM” value was 11.5%.
